Experimental data: the supplement of paper PMC4604168 (melanoma cell lines)
The list shows a part of the results. Many values rest on one well or one pass, so single values are uncertain.

Experiments:
Experiment in all cases: cell count relative to DMSO control; melanoma cells; higher = more viable cells
Conditions in all cases: library dose: standard library concentration; 72 h
[1] = system: G361
[2] = system: IPC-298
[3] = system: IST-MEL1
[4] = system: LB2518-MEL
[5] = system: LOXIMVI
[6] = system: MEL-HO
[7] = system: MZ2-MEL
[8] = system: MeWo
[9] = system: RPMI7951
[10] = system: RVH-421
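Further: cells treated in 1,536-well plates, then fixed and DAPI-stained, with nuclei counted from automated high-throughput microscope images.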

Row | Compound | cell count [1] [%] | cell count [2] [%] | cell count [3] [%] | cell count [4] [%] | cell count [5] [%] | cell count [6] [%] | cell count [7] [%] | cell count [8] [%] | cell count [9] [%] | cell count [10] [%]
1 | C[As](C)SC[C@H](NC(=O)CC[C@H](N)C(=O)O)C(=O)NCC(=O)O [Darinaparsin] + CN(NC(=O)CC(=O)NN(C)C(=S)c1ccccc1)C(=S)c1ccccc1 [STA4783] (first compound 2 µM, partner dose 0.03 µM) | 23.4 | 90.8 | 24.2 | 20 | 68.7 | 86.3 | 118 | 19.2 | 93.8 | 45.2
2 | C[C@]12O[C@H](C[C@]1(O)CO)n1c3ccccc3c3c4c(c5c6ccccc6n2c5c31)CNC4=O [Lestaurtinib] + CCN(CC)CCCCNc1ncc2cc(-c3cc(OC)cc(OC)c3)c(NC(=O)NC(C)(C)C)nc2n1 [PD173074] (first compound 0.02 µM, partner dose 0.5 µM) | 84.8 | 78.7 | 104 | 58.1 | 90.7 | 81.6 | 110 | 68.6 | 110 | 98.9
3 | N.N.[Cl][Pt][Cl] [cisplatin] + COc1cc2c(Oc3ccc4[nH]c(C)cc4c3F)ncnc2cc1OCCCN1CCCC1 [cediranib] (first compound 8 µM, partner dose 2 µM) | 103 | 110 | 96.7 | 97.9 | 79.4 | 106 | 98.9 | 82.7 | 96.7 | 101
4 | C[C@]12O[C@H](C[C@]1(O)CO)n1c3ccccc3c3c4c(c5c6ccccc6n2c5c31)CNC4=O [Lestaurtinib] + CCCCCCCCCCCC1=C(O)C(=O)C=C(O)C1=O [Embelin] (first compound 0.02 µM, partner dose 6 µM) | 55.3 | 54.4 | 63.9 | 77.2 | 85.9 | 68.2 | 83.6 | 93.4 | 68.6 | 62.6
5 | N.N.[Cl][Pt][Cl] [cisplatin] + CC(C)(C)c1cnc(CSc2cnc(NC(=O)C3CCNCC3)s2)o1 [SNS-032] (first compound 8 µM, partner dose 0.05 µM) | 118 | 109 | 96.9 | 93.3 | 75.9 | 86.9 | 115 | 98.8 | 91.2 | 69.4
6 | C[C@]12O[C@H](C[C@]1(O)CO)n1c3ccccc3c3c4c(c5c6ccccc6n2c5c31)CNC4=O [Lestaurtinib] + CC(C)C[C@H](NC(=O)[C@H](Cc1ccccc1)NC(=O)c1cnccn1)B(O)O [Bortezomib] (first compound 0.02 µM, partner dose 0.005 µM) | 2.39 | 9.87 | 4.55 | 4.64 | 34.2 | 13.5 | 5.9 | 12 | 6.38 | 21.1
7 | Cn1cc(C2=C(c3cn(C4CCN(Cc5ccccn5)CC4)c4ccccc34)C(=O)NC2=O)c2ccccc21 [Enzastaurin] + CC(=O)c1c(C)c2cnc(Nc3ccc(N4CCNCC4)cn3)nc2n(C2CCCC2)c1=O [palbociclib] (first compound 4 µM, partner dose 0.2 µM) | 51 | 75.9 | 73.4 | 41.3 | 92 | 99.6 | 77.2 | 47.5 | 45.1 | 39.5
8 | Cn1cc(C2=C(c3cn(C4CCN(Cc5ccccn5)CC4)c4ccccc34)C(=O)NC2=O)c2ccccc21 [Enzastaurin] + NC(=O)Nc1cc(-c2cccc(F)c2)sc1C(=O)N[C@H]1CCCNC1 [AZD7762] (first compound 4 µM, partner dose 0.1 µM) | 64.4 | 104 | 71.2 | 47.2 | 77.6 | 65 | 107 | 68.6 | 13.6 | 70.1
9 | C[As](C)SC[C@H](NC(=O)CC[C@H](N)C(=O)O)C(=O)NCC(=O)O [Darinaparsin] + OCCn1cc(-c2cnc3nnn(Cc4ccc5ncccc5c4)c3n2)cn1 [PF04217903] (first compound 2 µM, partner dose 5 µM) | 70.6 | 104 | 88.2 | 94.8 | 71.3 | 99.6 | 113 | 76.7 | 67 | 80.6
10 | C[As](C)SC[C@H](NC(=O)CC[C@H](N)C(=O)O)C(=O)NCC(=O)O [Darinaparsin] + Cc1cc(N2CCOCC2)cc2[nH]c(-c3c(NC[C@@H](O)c4cccc(Cl)c4)cc[nH]c3=O)nc12 [BMS536924] (first compound 2 µM, partner dose 1 µM) | 52.4 | 94.5 | 75 | 71.8 | 63.8 | 77.7 | 94.3 | 66.1 | 85.7 | 83.3
11 | Cn1cc(C2=C(c3cn(C4CCN(Cc5ccccn5)CC4)c4ccccc34)C(=O)NC2=O)c2ccccc21 [Enzastaurin] + CS(=O)(=O)CCNCc1ccc(-c2ccc3ncnc(Nc4ccc(OCc5cccc(F)c5)c(Cl)c4)c3c2)o1 [lapatinib] (first compound 4 µM, partner dose 4 µM) | 65.7 | 74.9 | 66.7 | 44.1 | 45.7 | 72.8 | 84.7 | 72.6 | 16 | 64
12 | C[C@]12O[C@H](C[C@]1(O)CO)n1c3ccccc3c3c4c(c5c6ccccc6n2c5c31)CNC4=O [Lestaurtinib] + COCC[n+]1c2c(n(Cc3cnccn3)c1C)C(=O)c1ccccc1C2=O [YM155] (first compound 0.02 µM, partner dose 0.002 µM) | 78.6 | 56.8 | 60.6 | 34.4 | 50.3 | 87.6 | 31 | 53.4 | 41.2 | 74.8
13 | C[C@]12O[C@H](C[C@]1(O)CO)n1c3ccccc3c3c4c(c5c6ccccc6n2c5c31)CNC4=O [Lestaurtinib] + COc1ccc2c(c1)CCC1C2CCC2(C)C(NCCCCCCN3C(=O)C=CC3=O)CCC12 [U73122] (first compound 0.02 µM, partner dose 2 µM) | 71.7 | 87.7 | 105 | 77.3 | 78.3 | 87.5 | 100 | 60.4 | 61.2 | 66.4
14 | N.N.[Cl][Pt][Cl] [cisplatin] + Oc1nc(-c2ccc(C(F)(F)F)cc2)nc2c1CSCC2 [XAV939] (first compound 8 µM, partner dose 10 µM) | 75.5 | 80.7 | 76.9 | 86.8 | 93.4 | 70.5 | 83 | 84.3 | 61.9 | 80.5
15 | Cn1cc(C2=C(c3cn(C4CCN(Cc5ccccn5)CC4)c4ccccc34)C(=O)NC2=O)c2ccccc21 [Enzastaurin] + CN(NC(=O)CC(=O)NN(C)C(=S)c1ccccc1)C(=S)c1ccccc1 [STA4783] (first compound 4 µM, partner dose 0.03 µM) | 26.4 | 86.4 | 28.7 | 32.1 | 59.4 | 73.9 | 107 | 16.2 | 60.1 | 19.9
16 | C[As](C)SC[C@H](NC(=O)CC[C@H](N)C(=O)O)C(=O)NCC(=O)O [Darinaparsin] + C=CCn1c(=O)c2cnc(Nc3ccc(N4CCN(C)CC4)cc3)nc2n1-c1cccc(C(C)(C)O)n1 [MK1775] (first compound 2 µM, partner dose 0.1 µM) | 54.9 | 67.4 | 81.7 | 52.5 | 57.9 | 76.8 | 101 | 45.3 | 48 | 73.7
17 | Cn1cc(C2=C(c3cn(C4CCN(Cc5ccccn5)CC4)c4ccccc34)C(=O)NC2=O)c2ccccc21 [Enzastaurin] + COc1ccc2c(c1)CCC1C2CCC2(C)C(NCCCCCCN3C(=O)C=CC3=O)CCC12 [U73122] (first compound 4 µM, partner dose 2 µM) | 77.2 | 90.6 | 86.6 | 96.3 | 87.9 | 93.6 | 91.6 | 71.2 | 42 | 89.3
18 | Cn1cc(C2=C(c3cn(C4CCN(Cc5ccccn5)CC4)c4ccccc34)C(=O)NC2=O)c2ccccc21 [Enzastaurin] + COc1ccc(C2=N[C@@H](c3ccc(Cl)cc3)[C@@H](c3ccc(Cl)cc3)N2C(=O)N2CCNC(=O)C2)c(OC(C)C)c1 [Nutlin-3] (first compound 4 µM, partner dose 0.5 µM) | 69.6 | 114 | 120 | 71.2 | 101 | 121 | 114 | 106 | 72.4 | 60.7
19 | C[As](C)SC[C@H](NC(=O)CC[C@H](N)C(=O)O)C(=O)NCC(=O)O [Darinaparsin] + O=C(O)c1ccc(-c2c[nH]c3ncc(-c4ccccc4)cc23)cc1C1CCCC1 [GSK650394] (first compound 2 µM, partner dose 0.8 µM) | 55.2 | 77.9 | 114 | 78 | 81.1 | 63.3 | 86.4 | 71 | 63.3 | 27.9
20 | N.N.[Cl][Pt][Cl] [cisplatin] + C#Cc1cccc(Nc2ncnc3cc(OCCOC)c(OCCOC)cc23)c1 [erlotinib] (first compound 8 µM, partner dose 4 µM) | 104 | 92.8 | 96.2 | 94.1 | 119 | 95.1 | 96.3 | 97.9 | 107 | 98.1
21 | C[As](C)SC[C@H](NC(=O)CC[C@H](N)C(=O)O)C(=O)NCC(=O)O [Darinaparsin] + CO[C@@H]1[C@H](N(C)C(=O)c2ccccc2)C[C@H]2O[C@]1(C)n1c3ccccc3c3c4c(c5c6ccccc6n2c5c31)C(=O)NC4 [Midostaurin] (first compound 2 µM, partner dose 0.4 µM) | 47.7 | 84 | 70.2 | 52.3 | 59.6 | 79.8 | 65.7 | 65.3 | 48.5 | 58.5
